Results as given in the supplement of paper PMC4967469.
Lines with a small IC50 respond at low doses; a limit (>, <) means that the fit lies beyond the doses tested. For AUC the same curve is integrated over the 256-fold range of doses and scaled to a fraction; the more sensitive the line, the further below 1. For some assays here: Where the top dose is marked as inferred, it was derived from the fitted curves, not read from the paper.

Experiments:
Assay in all cases: Viability of human cancer cell lines after 72 h of drug (GDSC screen)
[1] = compound: COC1=CC(c2cc3ccccc3[nH]2)=N/C1=C\c1[nH]c(C)cc1C [Obatoclax mesylate]; conditions: top dose 16 µM
Experimental: (§1)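 Human cancer cell lines in 384-well plates, medium with 10% serum, drug for 72 h over a 256-fold dose range (nine 2-fold or five 4-fold steps up to the top dose). Adherent lines were fixed and stained with the nucleic acid dye Syto60, suspension lines read with resazurin; signal relative to control wells, capped at 0 and 100%. One two-parameter sigmoid per drug and line, fitted in a mixed model over all curves with the slope shared within a line.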

[2] = compound: COCC(=O)NC/C=C/c1ccc2ncnc(Nc3ccc(Oc4ccc(C)nc4)c(C)c3)c2c1 [CP724714]; conditions: top dose 10.24 µM; top dose inferred
Experimental: as §1

[3] = compound: Cc1cccc(Nc2nc(-c3ccncc3)cs2)c1 [STF-62247]; conditions: top dose 10.24 µM; top dose inferred
Experimental: as §1

[4] = compound: Cc1cnc(CNC(=O)c2c(=O)c3ccc(N4CCCN(C)CC4)nc3n3c2sc2ccccc23)cn1 [CX-5461]; conditions: top dose 10.24 µM; top dose inferred
Experimental: as §1

Cell Line	AUC [1]	IC50 [1] [µM]	AUC [2]	IC50 [2] [µM]	AUC [3]	IC50 [3] [µM]	AUC [4]	IC50 [4] [µM]
T47D (breast, adherent)	0.524	1.2	0.924	> 10.2	0.977	> 10.2	0.95	> 10.2
T84 (large intestine, adherent)	0.281	0.237	0.979	> 10.2	0.981	> 10.2	0.891	> 10.2
T98G (glioma, adherent)	0.656	2.61	0.981	> 10.2	0.985	> 10.2	0.987	> 10.2
T-24 (bladder, adherent)	0.654	2.62	0.986	> 10.2	0.984	> 10.2	0.966	> 10.2
T-T (oesophagus, adherent)	0.115	< 0.0625	0.971	> 10.2	0.986	> 10.2	0.974	> 10.2
TCCSUP (bladder, adherent)	0.543	1.33	0.984	> 10.2	0.985	> 10.2	0.984	> 10.2
TGBC11TKB (stomach, adherent)	0.714	3.7	0.877	8.2	0.977	> 10.2	0.99	> 10.2
TMK-1 (stomach, adherent)	0.249	0.181	0.984	> 10.2	0.986	> 10.2	0.986	> 10.2
TOV-21G (ovary, adherent)	0.963	> 16	0.984	> 10.2	0.978	> 10.2	0.984	> 10.2
TOV-112D (ovary, adherent)	0.106	< 0.0625	0.916	> 10.2	0.969	> 10.2	0.669	1.89
TT2609-C02 (thyroid, adherent)	0.168	0.0896	0.985	> 10.2	0.983	> 10.2	0.62	1.4
TT (thyroid, adherent)	0.818	14	0.981	> 10.2	0.981	> 10.2	0.983	> 10.2
TYK-nu (ovary, adherent)	0.204	0.123	0.961	> 10.2	0.947	> 10.2	0.953	> 10.2
U031 (kidney, adherent)	0.161	0.0874	0.969	> 10.2	0.978	> 10.2	0.969	> 10.2
U251 (glioma, adherent)	0.318	0.318	0.977	> 10.2	0.957	> 10.2	0.8	4.67
U-2-OS (osteosarcoma, adherent)	0.852	14.1	0.936	> 10.2	0.983	> 10.2	0.788	4.92

Cell Line	AUC [1]	IC50 [1] [µM]	AUC [2]	IC50 [2] [µM]	AUC [3]	IC50 [3] [µM]	AUC [4]	IC50 [4] [µM]
U-118-MG (glioma, adherent)	0.363	0.393	0.971	> 10.2	0.985	> 10.2	0.986	> 10.2
UACC-62 (melanoma, adherent)	0.347	0.379	0.966	> 10.2	0.973	> 10.2	0.988	> 10.2
UACC-893 (breast, adherent)	0.652	3.05	0.83	9.65	0.96	> 10.2	0.979	> 10.2
UM-UC-3 (bladder, adherent)	0.286	0.26	0.944	> 10.2	0.953	> 10.2	0.678	1.94
UMC-11 (lung carcinoid, adherent)	0.533	1.22	0.985	> 10.2	0.984	> 10.2	0.879	8.56
VM-CUB-1 (bladder, adherent)	0.444	–	0.983	> 10.2	0.98	> 10.2	0.984	> 10.2
VMRC-MELG (melanoma, adherent)	0.527	1.19	0.987	> 10.2	0.985	> 10.2	0.987	> 10.2
VMRC-RCW (kidney, adherent)	0.111	< 0.0625	0.98	> 10.2	0.975	> 10.2	0.986	> 10.2
VMRC-RCZ (kidney, adherent)	0.366	–	0.976	> 10.2	0.97	> 10.2	0.962	> 10.2
WM35 (melanoma, adherent)	0.053	< 0.0625	0.976	> 10.2	0.963	> 10.2	0.682	2.07
WM278 (melanoma, adherent)	0.197	0.109	0.981	> 10.2	0.984	> 10.2	0.981	> 10.2
WM793B (melanoma, adherent)	0.093	< 0.0625	0.975	> 10.2	0.984	> 10.2	0.951	> 10.2
WM1552C (melanoma, adherent)	0.092	< 0.0625	0.985	> 10.2	0.986	> 10.2	0.869	9.51
WM-115 (melanoma, adherent)	0.719	4.86	0.942	> 10.2	0.949	> 10.2	0.876	> 10.2
YAPC (pancreas, adherent)	0.729	5.34	0.984	> 10.2	0.985	> 10.2	0.972	> 10.2
YKG-1 (glioma, adherent)	0.225	0.156	0.978	> 10.2	0.957	> 10.2	0.76	3.65
